No constants are given. Whether binding was seen depends on the method and setting. For part of these data: In cells and extracts the contact can be indirect. Some binding calls cover weakened binding; strength is not graded here. For part of these data: Sequences can lack the tags named with a protein. Values belong to the molecule of their own block, whether it stands above or below them.
Columns and labels:
[1] = target: T1, myc-tagged truncated Nde1 C1, aa232–344 (mouse) (UniProt Q9CZA6); assay: co-IP; 293T cells co-transfected; lysis in 150 mM NaCl, 50 mM Tris pH 7.5, 0.1% TX100, 1 mM DTT; immunoprecipitation with anti-myc 9E10 and protein A/G sepharose, immunoblot with anti-Flag, anti-EGFP or a Dmd antibody
T1 sequence: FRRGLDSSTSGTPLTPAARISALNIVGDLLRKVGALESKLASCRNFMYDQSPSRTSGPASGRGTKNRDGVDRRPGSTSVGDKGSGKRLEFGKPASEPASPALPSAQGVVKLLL

[2] = target: T2, myc-tagged full-length Nde1 (mouse) (UniProt Q9CZA6); assay: as above
T2 sequence: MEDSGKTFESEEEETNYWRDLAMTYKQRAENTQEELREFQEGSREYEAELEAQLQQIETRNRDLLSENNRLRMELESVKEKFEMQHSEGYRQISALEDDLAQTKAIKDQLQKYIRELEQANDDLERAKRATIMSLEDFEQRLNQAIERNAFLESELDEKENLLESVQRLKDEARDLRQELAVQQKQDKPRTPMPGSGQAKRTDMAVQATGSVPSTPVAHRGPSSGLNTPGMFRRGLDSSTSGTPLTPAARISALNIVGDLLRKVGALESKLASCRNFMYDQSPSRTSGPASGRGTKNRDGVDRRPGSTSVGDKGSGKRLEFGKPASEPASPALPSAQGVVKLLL

[3] = target: Flag tagged full-length Utrn (mouse) (UniProt E9Q6R7); assay: co-IP; 293T cells co-transfected; lysis in 150 mM NaCl, 50 mM Tris pH 7.5, 0.1% TX100, 1 mM DTT; immunoprecipitation with anti-Flag antibody and protein A/G sepharose, immunoblot with anti-EGFP
[4] = target: T3, Nde1 (yeast two-hybrid bait) (mouse) (UniProt Q9CZA6); assay: two-hybrid; screen of a mouse E9.5–10.5 whole embryo yeast two-hybrid library for Nde1 associated proteins; performed as described in ref. 14
T3 sequence: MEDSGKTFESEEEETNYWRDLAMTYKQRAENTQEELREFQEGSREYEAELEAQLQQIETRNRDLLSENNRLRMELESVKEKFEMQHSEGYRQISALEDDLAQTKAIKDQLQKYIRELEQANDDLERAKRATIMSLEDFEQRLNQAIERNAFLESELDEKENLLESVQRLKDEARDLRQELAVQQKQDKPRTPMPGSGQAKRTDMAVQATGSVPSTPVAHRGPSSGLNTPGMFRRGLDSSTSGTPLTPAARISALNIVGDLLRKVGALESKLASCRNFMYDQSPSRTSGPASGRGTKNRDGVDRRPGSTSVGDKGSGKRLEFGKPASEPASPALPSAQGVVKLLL

[5] = target: T4, GST-Dmd C-terminal fusion protein (I3458-M3678) (mouse) (UniProt P11531); assay: pull-down; GST-Dmd C-terminal fusion proteins purified from bacteria on glutathione-agarose, incubated with protein extractions from EGFP-Nde1 transfected 293T cells; immunoblot with anti-GFP; only the target purified
T4 sequence: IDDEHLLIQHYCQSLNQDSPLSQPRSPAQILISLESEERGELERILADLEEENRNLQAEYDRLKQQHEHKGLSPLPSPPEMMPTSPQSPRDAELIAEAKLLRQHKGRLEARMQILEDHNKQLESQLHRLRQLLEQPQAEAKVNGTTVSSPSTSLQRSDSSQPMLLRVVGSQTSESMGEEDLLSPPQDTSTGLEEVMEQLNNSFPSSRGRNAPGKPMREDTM

binding [1]: binds
binding [2]: binds
Molecule: Flag tagged full-length Utrn (from UniProt E9Q6R7 1-3430)

binding [2]: binds
Molecule: Full-length Flag-Dmd (from UniProt P11531 1-3678)

binding [3]: no binding
B1: GFP tagged LIS1 (protein, UniProt P63005 1-410)
chain: MVLSQRQRDELNRAIADYLRSNGYEEAYSVFKKEAELDMNEELDKKYAGLLEKKWTSVIRLQKKVMELESKLNEAKEEFTSGGPLGQKRDPKEWIPRPPEKYALSGHRSPVTRVIFHPVFSVMVSASEDATIKVWDYETGDFERTLKGHTDSVQDISFDHSGKLLASCSADMTIKLWDFQGFECIRTMHGHDHNVSSVAIMPNGDHIVSASRDKTIKMWEVQTGYCVKTFTGHREWVRMVRPNQDGTLIASCSNDQTVRVWVVATKECKAELREHEHVVECISWAPESSYSSISEATGSETKKSGKPGPFLLSGSRDKTIKMWDVSTGMCLMTLVGHDNWVRGVLFHSGGKFILSCADDKTLRVWDYKNKRCMKTLNAHEHFVTSLDFHKTAPYVVTGSVDQTVKVWECR

binding [2]: binds
B2: EGFP-tagged C-terminal fragment of Dmd, DmdC1 (aa 3458–3678) (domain or fragment, UniProt P11531 3458-3678)
chain: IDDEHLLIQHYCQSLNQDSPLSQPRSPAQILISLESEERGELERILADLEEENRNLQAEYDRLKQQHEHKGLSPLPSPPEMMPTSPQSPRDAELIAEAKLLRQHKGRLEARMQILEDHNKQLESQLHRLRQLLEQPQAEAKVNGTTVSSPSTSLQRSDSSQPMLLRVVGSQTSESMGEEDLLSPPQDTSTGLEEVMEQLNNSFPSSRGRNAPGKPMREDTM

binding [4]: binds
B3: Utrophin yeast two-hybrid clone, amino acids 3173 to 3311 (domain or fragment, UniProt E9Q6R7 3173-3311)
chain: EHYDPSQSPQLFHDDTHSRIEQYATRLAQMERTNGSFLTDSSSTTGSVEDEHALIQQYCQTLGGESPVSQPQSPAQILKSVEREERGELERIIADLEEEQRNLQVEYEQLKEQHLRRGLPVGSPPDSIVSPHHTSEDSE

binding [2]: binds
B4: EGFP-tagged C-terminal fragment of Utrn, UtrnC (aa 3173–3311) (domain or fragment, UniProt E9Q6R7 3173-3311)
chain: EHYDPSQSPQLFHDDTHSRIEQYATRLAQMERTNGSFLTDSSSTTGSVEDEHALIQQYCQTLGGESPVSQPQSPAQILKSVEREERGELERIIADLEEEQRNLQVEYEQLKEQHLRRGLPVGSPPDSIVSPHHTSEDSE

binding [3]: binds
binding [5]: binds
B5: GFP tagged-Nde1 (protein, UniProt Q9CZA6 1-344)
chain: MEDSGKTFESEEEETNYWRDLAMTYKQRAENTQEELREFQEGSREYEAELEAQLQQIETRNRDLLSENNRLRMELESVKEKFEMQHSEGYRQISALEDDLAQTKAIKDQLQKYIRELEQANDDLERAKRATIMSLEDFEQRLNQAIERNAFLESELDEKENLLESVQRLKDEARDLRQELAVQQKQDKPRTPMPGSGQAKRTDMAVQATGSVPSTPVAHRGPSSGLNTPGMFRRGLDSSTSGTPLTPAARISALNIVGDLLRKVGALESKLASCRNFMYDQSPSRTSGPASGRGTKNRDGVDRRPGSTSVGDKGSGKRLEFGKPASEPASPALPSAQGVVKLLL

Source: article PMC3196477
